# Source: PubChem BioAssay AID624202 (National Center for Advancing Translational Sciences (NCATS), 2012)
# The campaign covered roughly 380,000 compounds. About 4,000 (1.1%) were called active. Inconclusive means that the source gave no clear call. Such entries were picked first, then a sample of the others. Calls follow the shape of the dose curve; as a rule, active = well fitted activation curve with a large enough effect; inconclusive = small, poorly fitted or top-dose-only effect; inactive = no such curve, though single readings can be large or run the other way. Potencies beside an inconclusive call are fits to weak or partial responses and may not hold up.
# Test: qHTS Assay to Identify Small Molecule Activators of BRCA1 Expression; also: nearly all actives have a fitted effect of over 80% in size
# Conditions: MCF7-BRCA1-FFLuc reporter, luminescence, 48 h; activation: at 46.1 µM (top of the series), scaled: vehicle 0%, 10 µM genistein 100% unless noted
# Procedure, shortened: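 Reporter cells (MCF7, BRCA1 promoter-firefly luciferase) received library compounds across a concentration series for 48 h. End-point luminescence was measured and concentration-effect curves derived after normalization.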
# Potency is read from the fitted curve at half-maximal effect; tags tell the direction and shape of the fitted curve.
SMILES,Potency,activation
Cc1cc(N2CCCCC2)nc2ccc(NC(=O)CCC(=O)NCCC(C)C)cc12,"inconclusive: 6.31 µM [activator, partial curve, poor fit]",–
Cc1ccn2c(C(=O)CSc3ccccc3)c(C)nc2c1,"inconclusive: 17.8 µM [activator, partial curve, poor fit]",–
Cc1ccc2nc(NC(=O)C3=NN(c4ccccc4)C(=O)CC3)sc2c1,–,inactive: 35.9%
COc1ccc2oc(=O)c(-c3nnc(N)s3)cc2c1,active: 14.1 µM,–
CCC(=O)NC(=S)Nc1cccc(C(C)=O)c1,–,inactive: 0.846%
COc1ccccc1NC(=O)Nc1nc(CC(=O)N2CCN(c3ccccc3F)CC2)cs1,–,inactive: -14.5%
COc1ccc(CCNc2ncccc2C#N)cc1OC,active: 3.98 µM,–
O=C(CSc1nnc(-c2ccc(Cl)cc2)o1)N1CCOCC1,"inconclusive: 6.31 µM [activator, partial curve, poor fit]",–
Cc1cccc(-c2noc(-c3ccc(NCc4ccco4)c([N+](=O)[O-])c3)n2)c1,–,inactive: 0%
COc1cc(SC)ccc1C(=O)Nc1ccc2c(c1)OCCO2,"inconclusive: 0.501 µM [activator, full curve, poor fit]",–
O=C(N/N=C\c1ccc(-c2ccccc2[N+](=O)[O-])o1)C1COc2ccccc2O1 (stereo not given),–,inactive: -31%
CCN(N=O)c1ccc(C=C2C=Cc3ccccc32)cc1,"inconclusive: 3.16 µM [activator, partial curve, poor fit]",–
CN(C)c1ccc(NC(=O)c2ccc(COc3cccc(Cl)c3)o2)cc1,"inconclusive: 28.2 µM [activator, single point]",–
Cn1c(-c2ccc(C(F)(F)F)cc2)cc2onc(-c3ccccc3)c2c1=O,"inconclusive: 3.98 µM [activator, partial curve, poor fit]",–
Cc1csc(NC(=O)c2nc3nc(C)cc(C)n3n2)n1,"inconclusive: 1.78 µM [activator, full curve, poor fit]",–
Cc1ccccc1C(=O)NC1CCCN(Cc2ccccc2F)C1 (stereo not given),–,inactive: -15.9%
O=c1c2c(nc3cc(-c4ccccc4Cl)[nH]n13)CCS2,"inconclusive: 8.91 µM [activator, partial curve, poor fit]",–
COc1ccccc1NC(=O)Nc1ccc2c(c1)nc(C)n2C,–,inconclusive: 65.4% [activator]
CCCOc1ccccc1NC(=O)c1c(-c2ccccc2)noc1C,–,inactive: -37.8%
CC(=O)Nc1ccc(SCc2ncc(-c3ccccc3)o2)cc1,"inconclusive: 2.82 µM [activator, full curve, poor fit]",–
Cc1ccc(-c2cc(-c3ccccc3C)[nH]n2)c(O)c1,–,inactive: 29.7%
COc1ccc(CC(=O)O/N=C(\N)c2ccccn2)cc1OC,"inconclusive: 14.1 µM [activator, partial curve, poor fit]",–
O=C(NCCC1=CCCCC1)c1ccc(CN2CCOCC2)cc1,"inconclusive: 2 µM [activator, partial curve, poor fit]",–
CC(C)Cc1nc2oc3c(NCC4CCCO4)ncnc3c2c2c1CCC2 (stereo not given),–,inactive: -39%
O=S(=O)(c1cccs1)N1CCCc2cccc(O)c21,active: 12.6 µM,–

SMILES,Potency,activation
Cc1nc(-c2ccccc2)sc1-c1ccn[nH]1,"inconclusive: 2.51 µM [activator, full curve, poor fit]",–
FC(F)(F)c1cccc(Cn2c3[n+](c4ccc(C(F)(F)F)cc42)CCCCC3)c1,–,inactive: -14.5%
CCN(Cc1ccccc1)C(=O)COC(=O)c1cc(Cl)nc(Cl)c1,–,inactive: -4.57%
Cn1c(CN2CCCCC2)nc2cc(NS(=O)(=O)c3ccc(Cl)cc3)ccc21,–,inactive: 0.123%
CN1CCN(/N=C/c2ccc(Br)cc2)CC1,active: 5.62 µM,–
Cc1nc(-c2ccccc2)[nH]c(=O)c1Oc1ccc(Cl)cc1Cl,–,inactive: -7.62%
Cc1ccccc1C(=O)NC1CCN(CC(=O)Nc2ccc3c(c2)OCCO3)CC1,"inconclusive: 8.91 µM [activator, partial curve, poor fit]",–
N/C(=N\OC(=O)c1ccc(Cl)cc1Cl)c1cccnc1,"inconclusive: 0.794 µM [activator, full curve, poor fit]",–
CN(C=O)c1ccc(CSc2ccccc2)cc1,active: 8.91 µM,–
O=C(/C=C/c1ccc(Cl)cc1Cl)NC(=S)Nc1ccccn1,"inconclusive: 1.12 µM [activator, full curve, poor fit]",–
COc1cccc(-c2cc(C(=O)NCc3cccs3)no2)c1,"inconclusive: 2.24 µM [activator, full curve, poor fit]",–
Cc1ccc(/C=N/n2cnc3sc(-c4ccccc4)cc3c2=O)o1,"inconclusive: 11.2 µM [activator, partial curve, poor fit]",–
COc1ccc(C(=O)Nn2c(SCc3ccc([N+](=O)[O-])cc3)nc3ccccc3c2=O)cc1,"inconclusive: 1.26 µM [activator, partial curve, poor fit]",–
Brc1ccccc1-n1nnc(-c2nccs2)n1,active: 4.47 µM,–
COc1cc(/C=N/NC(=O)CN2CCOCC2)ccc1OCc1ccccc1,"inconclusive: 35.5 µM [activator, single point]",–
CC1(C)CC(=O)c2sc(NC(=O)C(C)(C)C)nc2C1,active: 7.94 µM,–
COCc1nnc(NC(=O)c2ccc(OC)cc2OC)s1,"inconclusive: 0.631 µM [activator, full curve, poor fit]",–
Nc1ccc2c(c1)C(=O)N(c1ccc3ccccc3c1)C2=O,active: 11.2 µM,–
CCOc1ccc(C(=S)NC2CCCCC2)cc1,active: 10 µM,–
Cc1cc(NC(C)c2ccccc2)n2ncc(-c3ccccc3)c2n1 (stereo not given),active: 6.31 µM,–
O=C(Nc1ccc(-c2cnco2)cc1)c1ccccc1,active: 2.82 µM,–
CN(C)c1cccc(C(=O)N(C)C2CCCN(Cc3ccccc3F)C2)c1 (stereo not given),–,inactive: -6.33%
CC1=NN(c2ccccc2)C(=O)/C1=C/c1c(O)n(-c2ccc(F)c(Cl)c2)[nH]c1=O,"inconclusive: 35.5 µM [activator, single point]",–
O=Cc1ccc(/C=C2\C=Cc3ccccc32)cc1,–,inactive: -75%
CCOc1ccc2nc(SCC3CC3(Cl)Cl)[nH]c2c1 (stereo not given),"inconclusive: 1 µM [activator, full curve, poor fit]",–
